Results: PubChem BioAssay AID1508624 (National Center for Advancing Translational Sciences (NCATS), 2021)
Screen size: about 48,000 compounds; about 120 (0.25%) were called active. Not shown: some 4% with an inconclusive outcome. Calls come from the whole dose curve; as a rule, active = well fitted activation curve with a large enough effect; inconclusive = small, poorly fitted or top-dose-only effect, or another doubt; inactive = no such curve, though single readings can be large or run the other way. This is one part of the list.

experiment: Primary qHTS for Identification of Small Molecule Activators of Huntingtin-Antisense Promoter Activity; conditions: HEK293 HTT-AS promoter firefly luciferase reporter, 24 h; series mostly up to 57.5 µM; activity change, positive = activation: at the top concentration; note: nearly all actives have a fitted effect of over 55% in size
In short: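 HEK293 luciferase promoter-reporter cells (2,500/well) plated 24 h, then compounds added at up to 57.5 uM final for 24 h at 37 °C. Firefly luminescence by Dual-Glo, normalized to vehicle (0%) and zero RLU (-100%).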

Activity change, positive = activation, inactive:
C=C(C)[C@@H]1CC[C@]2(C(=O)O)CC[C@]3(C)[C@H](CC[C@@H]4[C@@]5(C)CC[C@H](O)C(C)(C)[C@@H]5CC[C@]43C)[C@@H]12 -16.5%, COCCCNC(=O)c1ccc(Cn2c(=O)c3cccn3c3cccnc32)cc1 -29.5%, CCC(=C(CC)c1ccc(O)cc1)c1ccc(O)cc1 -47%, COc1ccccc1CCNC(=O)C1CCN(c2nnc(C)c3c(C)n(-c4ccc(C)cc4)nc23)CC1 -13.5%, O=[N+]([O-])c1ccc(O)c(-c2ccnc3cc(-c4ccccc4)nn23)c1 -78.4%, Cc1ccc(Cn2c(CN3CCN(c4cccc(Cl)c4)CC3)nc3c2c(=O)n(C)c(=O)n3C)cc1 -8.54%, Cc1ccc(CNC(=O)Cn2c3ncccc3c(=O)n2-c2ccc(C)cc2)cc1 -8.54%, CC(C)c1cc(-c2nc(-c3cccc(Cl)c3)no2)n[nH]1 25.1%, COc1ccccc1N1CCN(c2cc(C)nc3nncn23)CC1 -22.5%, COc1ccc(C)c2sc(N3CCN(C(=O)c4ccco4)CC3)nc12 -27.2%, CCOc1ccc(CNC(=O)CSc2c3c(nc4ccc(Cl)cc24)CCCC3)cc1 -6.55%, Cc1nn2c(=O)cc(COC(=O)c3ccc(NC(=O)COc4ccccc4F)cc3)nc2s1 -10.9%, Cc1nc2c(c(C)nn2C(C)(C)C)c(C)c1CCC(=O)Nc1ccc(F)cc1 -19.5%, Cc1ccc2oc(C(=O)Nc3sc4c(c3C(=O)NCc3ccco3)CCC4)cc(=O)c2c1 7.4% [at 11.5 µM, percent change from vehicle, -100% = no light], CCSc1nc2ccccc2c(OCc2cc(C(=O)OC)ccc2OC)c1C(=O)OC -40.9%, COC(=O)c1c(C)sc(-c2c(-c3ccc(OC)c(F)c3)[nH]c3c2c(=O)n(C)c(=O)n3C)c1O -3.51%, CC(C)C(=O)Nc1nnc(S(=O)(=O)N2c3ccccc3CC2C)s1 (stereo unspecified) -7.74%, CCCOc1cccc(C(=O)Nc2cccc(NC(=O)c3ccc(Cl)cc3Cl)c2)c1 -1.47%, Cc1ccc(C(C)C)c(OCC(=O)Nc2ccc(O)c(-c3nc4cc(Cl)ccc4o3)c2)c1 -3.76%, CCOC(=O)c1c(-c2ccccc2)oc2ccc(OCc3cccc(Br)c3)cc12 -20.9%, O=C(Cn1cc(C(=O)c2cccs2)c2ccccc21)Nc1ccc(Br)cc1 -45.4%, O=C1CCSC2(C(=O)N(Cc3ccc(F)cc3)c3ccccc32)N1c1cccc(F)c1 (stereo unspecified) -24.4%, CCN(c1cccc(C)c1)S(=O)(=O)c1c(C)nc2sc(C)cn2c1=O -23.6%, COc1cccc(C(c2sc3nc(-c4ccco4)nn3c2O)N2CCN(C)CC2)c1 (stereo unspecified) -0.757%, COc1ccc(CNC(=O)CN(C)S(=O)(=O)c2ccc3c(c2)c(=O)n(C)c(=O)n3C)cc1 -11.8%, CCS(=O)(=O)Nc1ccc(-c2cn3c(C)csc3n2)cc1 -49.3%, COc1ccc(C(=O)Oc2cc(-c3ccc(OC)c(OC)c3)cc(=O)c3c(C)oc(C)c23)cc1 -18.5%, NC(N)=Nc1nc(CSCCC(N)=NS(N)(=O)=O)cs1 -26.7%, CSc1nn(CC(=O)Nc2cc(C)ccc2C)c(N)c1S(=O)(=O)c1ccccc1 -38.9%, Cc1ccc2c(=O)cc(C(=O)Nc3c(C(=O)c4ccc(F)cc4)oc4ccccc34)oc2c1C -3.07%, COc1ccc(NC(=O)CC(C)S(=O)(=O)c2cc3c(cc2C)NC(=O)CO3)cc1OC (stereo unspecified) -3.97%, O=C(Nc1nnc(S(=O)(=O)N2CCCCCC2)s1)c1ccc(Cl)cc1 -19.4%, COc1ccccc1CNC(=O)C1CCN(c2nnc(C)c3c(C)n(-c4ccccc4)nc23)CC1 -7.89%, CC(C)CC(=O)OCc1cc(=O)n2nc(C3CCCCC3)sc2n1 17%, Cc1ccc(NC(=O)CN2C(=O)CC(c3ccc(C)c(C)c3)=Nc3ccccc32)cc1 4.74%, CCC(CC)C(=O)Nc1cc(-c2nc3cccnc3s2)ccc1C -0.639%, Cc1cccc(C)c1OC(=O)CSc1nnc(-c2ccc3c(c2)OCO3)o1 -12.2%, CCOC(=O)Cn1c(=O)oc2cc(S(=O)(=O)N3CCN(c4ccc(F)cc4)CC3)ccc21 -8.61%, COc1ccc(Nc2c(-c3ccsc3)nc3nc(C)cc(C)n23)cc1 -0.381%, COc1ccc(CCNC(=O)c2c(C)oc3ncn(CC(C)C)c(=O)c23)c(OC)c1 -12.8%, Nc1ncnc2c1ncn2[C@@H]1O[C@H](CO)C[C@@H]1O -28.7%, COC(=O)c1cc(C)nc2c1c(=O)nc(SCc1ccccc1Cl)n2C1CC1 -22.8%, Cc1ccc(OCC(=O)Nc2ccc3nn(-c4ccc(C)cc4)nc3c2)cc1 25.9%, Cc1nn(CCC(=O)Nc2ccccc2Br)c(=O)c2nn(-c3ccccc3)c(C)c12 -2.38%, Cc1cccc(CCNC(=O)CCS(=O)(=O)c2cc3c(cc2C)NC(=O)CO3)c1 -12%, CCc1nnc2c(Nc3ccccc3Br)nc3ccccc3n12 -3.54%, CCOC(=O)N1CCC2(CC1)OC(=O)C(C)=C2C(=O)NCc1ccccc1OC -8.09%, Cn1cnc(S(=O)(=O)N2CCC(C(=O)Nc3ccc(Cl)c(C(F)(F)F)c3)CC2)c1 -30%, COc1ccccc1N1CCN(C(=O)CNS(=O)(=O)c2ccc(Br)s2)CC1 -41.3%, COc1ccc(-c2cc(C(=O)NCCc3ccccc3)c3c(-c4ccc(Cl)cc4)[nH]nc3n2)cc1 -6.85%, C1N2CN3CN1CN(C2)C3 -0.355%, COc1ccc(CCNC(=O)CS(=O)(=O)Cc2nc(-c3cccc(Cl)c3)oc2C)cc1OC -25.4%, COc1ccc(CNC(=O)c2cccn2-c2nnc(N3CCCCC3)s2)c(OC)c1 -4.5%, Cc1cccc(N2C(=O)N(Cc3cccc(C#N)c3)c3ccccc3S2(=O)=O)c1 -33.3%, Cc1ccc(CSc2nc3ccncc3n2Cc2nc(-c3ccccc3C)oc2C)cc1 0.621%, O=C(CCS(=O)(=O)c1cc(Br)cc2c1N(C(=O)C1CC1)CC2)N1CCN(c2cccc(C(F)(F)F)c2)CC1 -36.2%, O=C(Cn1c(=O)n(Cc2ccc(C(=O)NCc3ccc4c(c3)OCO4)cc2)c(=O)c2ccccc21)Nc1ccccc1F -12%, CC(C)N(Cc1nc(-c2ccc(Cl)cc2)no1)C(=O)c1ccco1 -31.4%, COc1ccc(-n2ccn(CC(=O)Nc3ccc(C)cc3C)c(=O)c2=O)cc1 -4.91%, COc1ccc(CNC(=O)c2sc3nc4n(c(=O)c3c2C)CCC4)cc1 8.08%, CCCc1nnc(NC(=O)C(CC)Sc2nnc3c4ccccc4n(C)c3n2)s1 (stereo unspecified) -15.4%, COc1ccc2c(c1)c1c(c(=O)n(-c3cccc(C)c3)c(=O)n1CC(=O)NCc1ccc(C)cc1)n2C -4.04%, CC(C)(C)c1ccc(C(=O)NC(Cc2c[nH]c3ccccc23)C(=O)OCC(=O)c2ccc(Br)cc2)cc1 (stereo unspecified) -10.9%, CC(C)OCCCNC(=O)CN1C(=O)c2ccccc2Sc2ncccc21 -4.51%, O=C(Nc1cccc2c1CCCC2)N1CCOc2ccc(Cl)cc21 -19.1%, CCCC(=O)Nc1ccc2nc(SCC(=O)N3CCOCC3)sc2c1 1.73%, Cc1oc2ncnc(N3CCOCC3)c2c1C(=O)NCc1ccc(Cl)cc1 -16.7%, N#C/C(=C\c1ccc(-c2cccc(Cl)c2)o1)C(=O)Nc1cccc(C(F)(F)F)c1 -21%, Fc1ccc(N2CCN(c3ncnc4[nH]ncc34)CC2)cc1 -23.8%, Cc1cccc(C(C)C)c1NC(=O)c1ccc2c(c1)CCCN2S(C)(=O)=O -12.8%, Cc1cc(Cl)ccc1OCC(=O)N(Cc1ccc(N(C)C)cc1)C1CCS(=O)(=O)C1 (stereo unspecified) -14.8%, CCCn1cc(S(=O)(=O)c2cccc(Cl)c2)c(=O)c2cc(F)c(N3CCCC3)cc21 -24.6%, CCOC(=O)c1cc(-c2ccc(C)cc2)n(CC(=O)Nc2ccc(OC)cc2OC)c1C -3.08%, Cc1ccc(NC(=O)CSc2nccn2C2CCCC2)cc1Cl 17.5%, Cc1ccc(S(=O)(=O)N(CC(=O)NCCSc2ccc(Cl)cc2)c2cccc(Cl)c2)cc1 -29.6%, CCN1CCN(C(c2ccc(F)cc2)c2sc3nc(-c4ccco4)nn3c2O)CC1 (stereo unspecified) -9.86%, Cc1ccc(S(=O)(=O)CCC(=O)N2CCN(c3nc4c(C)c(C)ccc4s3)CC2)cc1 -20%, COc1ccc(N2CCN(C(c3ccc(F)cc3)c3sc4nc(-c5ccco5)nn4c3O)CC2)cc1 (stereo unspecified) -16%, Cc1ccc(OCC(=O)Nc2nonc2-c2ccc(Br)cc2)cc1 -5.47%, CCCCCN(C)CCC(O)(P(=O)(O)O)P(=O)(O)O -13.3%, CCc1cc(=O)[nH]c(SCc2nc(-c3ccc(C(F)(F)F)cc3)no2)n1 -43.5%, CCC(C)NC(=O)c1cnn(-c2cccc(F)c2)c1-n1cccc1 (stereo unspecified) -16%, CC(=O)N1CCCC1c1nc2ccccc2n1Cc1ccccc1F (stereo unspecified) -14.7%, COc1ccc(Cn2c(=O)c3ccccc3n3c(-c4cccc(OC)c4OC)nnc23)cc1 -9.31%, Cc1cccc(NC(=O)C2CCN(c3cnccn3)CC2)c1 -17%, CC1CCN(S(=O)(=O)c2ccc3c(c2)oc(=O)n3CC(=O)O)CC1 -0.0649%, COc1ccc(CC(=O)Nc2ccc3nc(N4CCCCC4)cc(C)c3c2)cc1 -5.31%, CCOC(=O)c1c(NC(C)=O)c2c3c(sc2n1Cc1nc(-c2ccccc2Cl)oc1C)CCCC3 -32.5%, Cc1ccc(CNC(=O)c2cc3c(s2)-c2c(C)cccc2OC3)cc1 -8.73%, Cc1ncc([N+](=O)[O-])n1C -0.342%, CC(C)OC(=O)C(C(=O)OC(C)C)=C1SC=CS1, Cc1cc(C)cc(NC(=O)N2CCN(c3cc(-c4noc(C)n4)ccc3C)CC2)c1 -45.5%, COc1ccc2c(c1)c1c(c(=O)n(Cc3ccccc3)c(=O)n1CC(=O)NCc1ccccc1)n2C -22.5%, CCOc1ncc(F)c(=O)[nH]1 -1.74%, COc1ccc(CNCc2c(C(=O)O)n(Cc3ccc(F)cc3)c3cc(C)ccc23)cc1OC -29.5%, CN(C)CCN(Cc1ccco1)C(=O)c1oc2ccccc2c1NC(=O)c1cccc(F)c1 0%
